From the supplement of paper PMC8291772
± gives the standard error. Some of the results follow.

These sequences were tested against terminal deoxynucleotidyl transferase (calf thymus) (UniProt P06526) (assay: TdT poly-dT extension signal (Cy3 hybridisation fluorescence, uncapped minus capped) (fluorescence a.u.); higher = more efficient initiation of TdT extension). Conditions: initiator chemistry: L-DNA (mirror-image), free 5'-OH (3'-tethered via HEG linker).
Protocol: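 All mono- to pentamer D-DNA or L-DNA initiators were made by forward (3'->5') photolithographic in situ synthesis on glass on a hexaethylene glycol linker, leaving a free 5'-OH. Each was made in uncapped and DMTr-dT-capped versions, about 11 replicates each. Arrays were extended with calf thymus TdT (0.2 U/uL), 100 uM dTTP and 0.25 mM CoCl2 for 120 min at 37 C, hybridised with an rA18-Cy3 probe and scanned at 532 nm. The value is the mean uncapped minus the mean capped signal. IDs read 5'->3'. L-DNA is mirror-image; D-DNA 5'-OH initiators were below LOD (no extension).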

Sequence of UniProt P06526 (P06526 whole entry): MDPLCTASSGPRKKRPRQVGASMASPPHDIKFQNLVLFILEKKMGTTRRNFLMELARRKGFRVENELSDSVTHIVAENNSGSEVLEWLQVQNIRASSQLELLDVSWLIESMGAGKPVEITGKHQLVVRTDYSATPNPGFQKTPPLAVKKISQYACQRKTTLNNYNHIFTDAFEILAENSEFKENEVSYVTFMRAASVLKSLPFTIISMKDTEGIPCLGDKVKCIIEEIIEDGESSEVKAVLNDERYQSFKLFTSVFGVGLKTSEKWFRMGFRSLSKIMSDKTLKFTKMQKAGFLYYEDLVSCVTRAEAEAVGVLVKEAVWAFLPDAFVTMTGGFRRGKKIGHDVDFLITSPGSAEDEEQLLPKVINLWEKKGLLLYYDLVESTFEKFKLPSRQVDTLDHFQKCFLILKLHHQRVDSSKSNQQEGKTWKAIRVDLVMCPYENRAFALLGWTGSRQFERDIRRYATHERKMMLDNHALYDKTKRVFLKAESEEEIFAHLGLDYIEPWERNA

Sequence | TdT poly-dT extension signal
CGGCC | 60.3 ± 5.3
ACACC | 72.6 ± 7.5
TCTCG | 153 ± 8.1
GGAGG | 104 ± 13
ATGGT | 120 ± 11
CAGG | 55 ± 6
ATTGA | 165 ± 14
GATTA | 77.7 ± 7.4
CACCC | 63.7 ± 8
TGGTT | 105 ± 8.6
TCCTG | 166 ± 16
GAAG | 84.2 ± 7
CCAAC | 88.3 ± 9
TCTTT | 153 ± 12
TAAC | 170 ± 9.3
TGGAT | 115 ± 8.1
CTATA | 170 ± 13
GTCAT | 135 ± 9.9
CCGCT | 57.4 ± 6
CCAAT | 101 ± 7.5
AGTG | 45.2 ± 5.9
AAGAT | 64.9 ± 8.1
CAGAC | 60 ± 6.4
TAAAG | 223 ± 12

Sequence | TdT poly-dT extension signal
AAAGC | 67 ± 7.7
GACTC | 92.9 ± 11
ACGT | 42.1 ± 5.4
AGACG | 76.7 ± 8.6
AGCTA | 43.4 ± 4.9
CCCTT | 78.4 ± 6.8
TATCG | 166 ± 17
GCCG | 95.6 ± 5.3
CTCTG | 148 ± 13
ACGAT | 57.4 ± 6.8
TATCC | 138 ± 13
GTGCA | 84.5 ± 7.8
TCTCA | 199 ± 18
TACGG | 192 ± 11
CACAG | 80.2 ± 6.8
AAAAC | 78.1 ± 8.6
TTTT | 223 ± 25
CTTTT | 135 ± 12
GATTT | 79.8 ± 9
CCCTG | 78.1 ± 7.9
CATTA | 78.4 ± 11
CTGTC | 101 ± 8.1
GGTCT | 31.1 ± 5.4
GAGC | 67.3 ± 3.5

Sequence | TdT poly-dT extension signal
ATCT | 148 ± 17
TCCT | 169 ± 16
AGCCA | 49.6 ± 8.4
GTACT | 137 ± 10
TGATG | 184 ± 9.4
CGGC | 59.4 ± 8.6
GTGCG | 129 ± 9.4
GAAA | 96.5 ± 8.5
GTGA | 101 ± 10
TCAAC | 186 ± 13
ACACG | 65.7 ± 8.4
GCCTA | 97.9 ± 12
TGAAC | 231 ± 21
GGCCA | 65.2 ± 7
ATCGT | 189 ± 13
AAAAA | 106 ± 7.2
GAGA | 78.4 ± 5.5
TGTGT | 113 ± 11
AAGCT | 40 ± 5.4
TAGA | 139 ± 13
TCGAC | 151 ± 11
GTCGA | 176 ± 15
CACC | 71.5 ± 8
GTTAT | 155 ± 13

Sequence | TdT poly-dT extension signal
GGGT | 55.9 ± 4.4
TAGC | 107 ± 14
CCCGG | 125 ± 7.8
ACTGC | 48.4 ± 9.3
CTATG | 161 ± 12
CTTTG | 141 ± 13
TAAGA | 161 ± 14
GGTAC | 56.8 ± 7.3
CGAGT | 47.4 ± 5.2
CTCGA | 135 ± 12
TTTCG | 286 ± 22
CCACG | 100 ± 8.9
CGTC | 54.8 ± 8.1
CATGG | 80 ± 9.5
CCTTA | 68 ± 5.6
TAAAC | 191 ± 19
CTTAG | 158 ± 16
GATAT | 86.8 ± 8.1
CTGGG | 141 ± 8.5
CAACT | 73.7 ± 9.8
AATA | 106 ± 9.7
AGATG | 75.2 ± 5.8
ATTTT | 136 ± 16
AGAGA | 84.3 ± 4.5

Sequence | TdT poly-dT extension signal
ACTTA | 47 ± 20
GTGTC | 102 ± 8.5
AAGTG | 51 ± 4.8
GCCCA | 74.8 ± 7.6
GTTGA | 173 ± 19
AACCC | 74.5 ± 9.3
CGTGG | 68 ± 6.6
TACG | 149 ± 14
CGGAC | 58.2 ± 6.5
ATATG | 192 ± 15
TCCGT | 193 ± 12
ACTAG | 99.9 ± 7.2
TTACA | 344 ± 20
GGCGG | 71.8 ± 9.6
TTGT | 258 ± 19
ACTG | 58 ± 8
GTCC | 98.5 ± 11
CACGT | 52.8 ± 7.1
TGGTA | 82.2 ± 5.3
CGAGC | 65 ± 6.4
CGCAC | 50.3 ± 7.4
GCGA | 76.3 ± 7.8
CTGT | 120 ± 13
CTTA | 153 ± 11

Sequence | TdT poly-dT extension signal
AGAAT | 81.9 ± 10
TTCAC | 371 ± 39
TTAA | 347 ± 25
ATCC | 129 ± 9.2
GAGCG | 76.8 ± 7.2
CTCA | 135 ± 8.5
GCGTG | 50 ± 7.3
GCTCG | 83.1 ± 5.8
AAGCA | 50.6 ± 7.2
CTCGG | 158 ± 9.7
CATT | 60.5 ± 7.3
CTCC | 134 ± 18
AGTAA | 42.8 ± 5.5
CGCGG | 70.5 ± 7.6
GGTG | 60.4 ± 7.2
AGGGC | 58.6 ± 8.7
GGAGA | 83.4 ± 8.9
GGCTC | 52.7 ± 7.3
ACCTT | 75.9 ± 4.1
ATAAT | 246 ± 19
AAACG | 71.4 ± 5.5
AAAGT | 69.2 ± 6.7
TTGGG | 335 ± 18
TTAGC | 308 ± 15

Sequence | TdT poly-dT extension signal
TCAAA | 212 ± 16
CATAA | 110 ± 9.3
GCGAA | 79.1 ± 7.7
TTCGA | 367 ± 21
CTGGC | 114 ± 5.9
GTTGT | 139 ± 8.7
GATTG | 84.5 ± 11
CACAC | 88.4 ± 8.7
TCAGC | 160 ± 12
GTCCC | 118 ± 13
CCGCC | 73.4 ± 5.9
TCAAT | 174 ± 18
TAGAA | 162 ± 14
ATCTA | 186 ± 9.6
TGAAG | 208 ± 9.1
TGGCC | 121 ± 10
TTATT | 381 ± 16
CATGC | 78.3 ± 9.3
GCGGA | 69.8 ± 7.4
ATTTC | 138 ± 12
AGGGT | 43.8 ± 4.7
TCGC | 132 ± 10
AGGTC | 26.2 ± 5.7
TTGGT | 241 ± 22

Sequence | TdT poly-dT extension signal
GTGG | 118 ± 9.7
ACAGA | 85.7 ± 5.8
GAAT | 79.3 ± 7.4
TATGT | 149 ± 16
AGCG | 48.1 ± 6.1
ATAGA | 236 ± 15
GGGTC | 60.9 ± 5.2
TATCT | 149 ± 14
ATAGT | 179 ± 18
CTAAA | 224 ± 15
AAATG | 85.4 ± 7
AAGAC | 70.7 ± 5.5
TATAC | 157 ± 14
CTACG | 145 ± 12
GTAAT | 179 ± 14
ATTAC | 153 ± 15
ACGAG | 68.5 ± 5.5
TTGTC | 254 ± 14
GAAGC | 75.7 ± 9.7
ATGAA | 175 ± 12
TTCAG | 356 ± 32
ACCGT | 91.3 ± 5.6
TCCTC | 186 ± 9
TATTG | 135 ± 8.4

Sequence | TdT poly-dT extension signal
AGGCA | 44.1 ± 5.8
CCTGT | 78.6 ± 4.2
GCGAG | 74.9 ± 6.4
GCCTG | 90.6 ± 8.8
GACTG | 85.6 ± 6.6
AAGGA | 50.6 ± 5.9
GGTTA | 50.7 ± 4.8
CCTCT | 62.1 ± 6.5
CTTTC | 96.7 ± 12
TACAT | 177 ± 12
GTGGA | 127 ± 8.5
CGTTG | 53.7 ± 6.7
CGGT | 33.6 ± 5.1
GTAGA | 191 ± 19
CCCG | 106 ± 13
AGTCC | 32.2 ± 4.3
TGAT | 135 ± 11
GGGGC | 82.9 ± 13
TGGGC | 111 ± 10
GGGAG | 106 ± 19
TTATC | 325 ± 29
TCAA | 200 ± 13
CCCTA | 91.3 ± 8
